Measurements published in the supplement of paper PMC10326071.
Several values for one entry are separate records, joined by “and”; a condition that tells them apart may be missing. Equal values may be shown once. This is one part of the list. Repeats are few or missing, and single values can be far off.

System: SARS-CoV-2 nsp3 SARS-unique domain core (SUD-core, nsp3 residues 413-676)
Assay: apparent dissociation constant Kd (single-concentration BLI fit); higher = weaker binding
Details: 100 µM; 25 °C

Compound | apparent dissociation constant Kd
Cc1ccc(NC(=O)Nc2nnc(Sc3ncnc4cc(OCCCN5CCOCC5)ccc34)s2)cc1 | 45.4 µM
Nc1ncnc2c1ccn2[C@@H]1O[C@H](CO)[C@@H](O)[C@H]1O | 302 µM
O=c1cc(N2CCOCC2)oc2c(-c3ccc4c(c3)OCCO4)csc12 | 3190 µM
O=C(NCCN1CCOCC1)Nc1nc2ccc(Sc3nnc4ccc(-c5ccc(F)cc5)nn34)cc2s1 | 8830 µM
O=C(Nc1cn[nH]c1-c1nc2ccc(CN3CCOCC3)cc2[nH]1)NC1CC1 | 77.3 µM
Cc1cc(N2CCOCC2)cc2[nH]c(-c3c(NC[C@@H](O)c4cccc(Cl)c4)cc[nH]c3=O)nc12 | 402 µM
CC(C)n1c(=O)n(C)c2cnc3cc(F)c(-c4ccc(OCCCN5CCCCC5)nc4)cc3c21 | 17.1 µM
Nc1nn2cc(F)cnc2c1C(=O)Nc1cncc(F)c1N1CCC(C(=O)N2CCN(C3COC3)CC2)CC1 | 6.61 µM
Nc1ncnc2nc[nH]c12 | 295 µM
N#Cc1ccc2ncnc(NCCc3ccccc3)c2c1 | 937 µM
COc1ccc(Br)c(C=O)c1O | 60.1 µM
O=c1ccoc2cc(O)ccc12 | 31100 µM
Cc1cc(O)c(-c2ccc([C@@H](C)CN(C)C)cc2)c2c1[nH]c(=O)c1sccc12 | 138 µM
NC(=O)c1cccc(-c2cc(Nc3ccc(OC(F)(F)F)cc3)ncn2)c1 | 1570 µM
COc1ccc2c(Nc3cc(NC(=O)c4cccc(C(C)(C)C#N)c4)ccc3C)ncnc2c1 | 772 µM
Cc1cc(-c2cc(O)ccc2Cl)cc2nnc(Nc3ccc(OCCN4CCCC4)cc3)nc12 | 615 µM
Nc1ccn([C@@H]2O[C@H](CO)[C@@H](O)[C@@H]2O)c(=O)n1 | 55.5 µM and 49.1 µM
